PubChem BioAssay AID493208 (National Center for Advancing Translational Sciences (NCATS), 2011)
Out of some 44,000 compounds screened, about 340 (0.77%) were called active. About 5% were inconclusive and are not listed. Calls come from the whole dose curve; as a rule, active = well fitted inhibition curve with a large enough effect; inconclusive = small, poorly fitted or top-dose-only effect; inactive = flat fitted curve, though single readings scatter. This is one part of the list.

assay: Acumen qHTS Assay for Inhibitors of the mTORC1 Signaling Pathway in MEF (Tsc2-/-, p53-/-) Cells: Sytravon; conditions: phospho-rpS6 immunofluorescence/PI, 24 h; series mostly up to 38.3 µM; activity change, negative = inhibition: at the top concentration;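 note: plate controls were DMSO for no effect and rapamycin for full effect; nearly all actives have a fitted effect of over 50% in size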
Procedure, shortened: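 Immunofluorescence of rpS6 phosphorylation in Tsc2-/-, p53-/- MEFs after 24 h compound exposure, normalized to propidium iodide signal. Activity is expressed as % positive cells, thresholded with 7.5 nM rapamycin.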

Activity change, negative = inhibition, inactive:
CCc1cccc(-n2c(=O)c3cccnc3n2CC(=O)Nc2ccc(OC)c(Cl)c2)c1 -5.76%
CCc1ccccc1NC(=O)CCCn1c(=O)c2cccn2c2ccccc21 0%
COc1cccc(-n2c(SCC(N)=O)nc3c(oc4ccccc43)c2=O)c1 -1.66%
O=C1CN(C(=O)Cc2ccccc2)C(c2ccc(F)cc2)c2cc(Br)ccc2N1 (stereo unspecified) 1.61%
CCOc1ccc(CCNCc2c(C(=O)O)c(C)n(Cc3ccccc3F)c2C)cc1 2.47%
Cc1ccc(S(=O)(=O)N2CCc3cc(C(=O)Nc4ccc(Cl)cc4C)ccc32)cc1 -3.03%
CCCc1nn2c(=O)cc(COC(=O)c3ccc(NC(=O)COc4ccccc4F)cc3)nc2s1 0%
CC1Cc2cc(S(=O)(=O)NCc3ccc(Cl)cc3)ccc2N1C(=O)C1CCC1 (stereo unspecified) 1.25%
CC(C)c1ccc(N2C(=O)N(Cc3cccc([N+](=O)[O-])c3)c3ccccc3S2(=O)=O)cc1 -0.029%
CCOc1ccc(NC(=O)[C@@H](c2ccccc2)N2Cc3ccccc3C2=O)cc1 -13.5%
Cc1noc(-c2ccc(-c3noc(-c4ccc([N+](=O)[O-])c(C)c4)n3)cc2)n1 -3.48%
CCN(CC)c1ccc(NC(=O)CCc2c(C)nc3ncnn3c2C)c(C)c1 -0.969%
Cc1cccn2c(=O)c(C(=O)N3CCN(c4ccc(Cl)cc4)CC3)cnc12 0.518%
O=S(=O)(NCCc1csc2nc(-c3ccccc3)nn12)c1ccc(Oc2ccccc2)cc1 -5.73%
CCOC(=O)c1cc2c(=O)n3ccccc3nc2n(Cc2ccco2)c1=NC(=O)c1cccc(Br)c1 -5.13%
Cc1ccc(Cl)cc1N1CCN(C(=O)c2noc3c2CCCC3)CC1 2.04%
Cc1ccc(-n2nnnc2CNC(=O)C2CC(=O)N(c3ccccc3)C2)cc1C (stereo unspecified) 2.86%
COc1ccc(Cl)cc1NC(=O)Cn1nnc2sc(-c3ccccc3)cc2c1=O -1.61%
COc1ccc(CCNC(=O)CCCCn2c(=O)c3ccccc3n(Cc3ccccc3)c2=O)cc1OC -24.4%
Fc1ccccc1N1CCN(c2ncnc3c2nc2n3CCCC2)CC1 1.06%
CCOC(=O)c1ccc(NC(=O)CSc2ncc(S(=O)(=O)c3ccc(C)c(Cl)c3)c(=O)[nH]2)cc1 -5.76%
CCCCN(C)c1nnc(NC(=O)Nc2ccc(Br)c(C)c2)s1 -1.3%
CCn1cc2nc(SCC(=O)Nc3ccc(OC)cc3OC)n(Cc3ccc(Cl)cc3)c(=O)c2n1 -4.17%
CCOCCc1nn2c(=O)cc(COC(=O)c3ccccc3NC(=O)c3ccc(C)cc3)nc2s1 25.5%
CCOc1ccc(NC(=O)Cn2cc(C(=O)c3ccc(C)cc3)c(=O)c3cc4c(cc32)OCO4)cc1 -3.85%
CCc1ccc(CN(Cc2ccco2)C(=O)c2cc(-c3ccc(C)c(F)c3)on2)cc1 -6.99%
CCn1c2c(c(=O)n3ncc(C(=O)Nc4ccc(Cl)cc4C)c13)CN(Cc1ccc(OC)cc1)CC2 3.41%
Brc1cccc(-c2nnn3c2nc(N2CCCCC2)c2ccccc23)c1 -19.6%
Cc1ccc2nc3c(c(Nc4ccc(C)c(C)c4)c2c1)CCC3 -9.75%
O=C(CNS(=O)(=O)c1cccs1)N1CCN(c2ccccc2F)CC1 -1.96%
CCCn1c(=O)c2sccc2n2c(CCCC(=O)NC3CCCCC3)nnc12 0.385%
Cc1ccc(F)cc1S(=O)(=O)N1CCC(c2nc3ccccc3s2)CC1 -12.6%
Cc1ccccc1Cn1c(C)c(CNCCCc2ccccc2)c(C(=O)O)c1C 0.169%
COc1ccc(C2C=C(c3ccc(Cl)cc3)Nc3nc(NC(=O)CCC(=O)O)nn32)cc1 (stereo unspecified) -0.547%
O=c1c2sc3ccccc3c2n(Cc2ccc(Cl)cc2)c(=O)n1Cc1ccco1 2.97%
COc1ccc(-c2csc3nc(-c4ccc(C)cc4)oc(=O)c23)cc1OC -1.54%
Cc1ccc(NC(=O)CCc2nc3cccnc3n2-c2ccccc2)cc1Cl 2.28%
Cc1ccc(N(Cc2cccs2)C(=O)c2ccccc2[N+](=O)[O-])cc1 -8.08%
CCC(C)NC(=O)Cn1c(=O)c2cccn2c2ccc(F)cc21 (stereo unspecified) 1.91%
CCCOc1cccc(C(=O)N2CCCCC2CCN2CCCCC2)c1 (stereo unspecified) -9.71%
O=C(Nc1ccc(F)cc1Cl)c1cnc(N2CCOCC2)c2ccccc12 0.359%
COc1cccc(CNC(=O)c2cc(=O)[nH]c3ccc(S(=O)(=O)N4CCCC4)cc23)c1 0.175%
Cc1ccccc1NC(=O)CCn1nc(-c2ccc(Cl)cc2)c2ccccc2c1=O 8.53%
COc1ccc(CNC(=O)CC2Oc3ccc(C)cc3NC2=O)cc1 (stereo unspecified) -1%
Cc1ccc(S(=O)(=O)N2CCc3cc(C(=O)Nc4c(C)cccc4C(C)C)ccc32)cc1 -3.21%
COc1cccc(CC(=O)Nc2ccc3nc(Nc4cccc(C(F)(F)F)c4)cc(C)c3c2)c1 -7.77%
COC(=O)c1cc2oc3ccccc3c2n1CC(=O)Nc1ccc(F)c(Cl)c1 -7.64%
CCOc1ccc(CCNC(=O)c2nn(C)c3c2CSc2ccc(C)cc2-3)cc1OCC 12.3%
COc1ccc(CCNc2nc(SCc3cccc(Cl)c3)nc3ccccc23)cc1OC -1.3%
Cc1cccc(Cn2c(CN3CCCC(C)C3)nc3c2c(=O)n(C)c(=O)n3C)c1 (stereo unspecified) 2.35%
O=C(NCc1ccccc1)c1nc(-c2ccc(Cl)cc2)n2c1CCCCC2 -1.62%
Clc1ccc2nc(-c3cccs3)c(Nc3ccc4c(c3)OCCO4)n2c1 0.164%
CCOC(=O)c1cc(OC(=O)c2cc(OC)cc(OC)c2)n(-c2ccccc2)n1 3.26%
CCc1nonc1NC(=O)c1oc2ccc(Cl)cc2c1C 2.82%
CCOC(=O)c1c(NC(=O)CSc2cn(CCNC(=O)c3ccc(OCC)cc3)c3ccccc23)sc2c1CCC2 1.64%
Cc1ccc(Cl)cc1NC(=O)Cn1c(SCC(=O)NCc2ccccc2)nc2ccccc21 1.21%
CC1Cc2cc(S(=O)(=O)NCc3ccccc3)ccc2N1C(=O)C1CCC1 (stereo unspecified) -13.6%
CC1=C(C(=O)OC2CCCCCC2)C(c2ccc(Cl)cc2Cl)CC(=O)N1 (stereo unspecified) -8.24%
CC(C)(C)c1ccccc1NC(=O)c1cnn2c(C(F)F)cc(-c3ccccc3)nc12 -4.25%
COc1ccccc1NC(=O)CSc1oc(-c2ccc(F)cc2)nc1S(=O)(=O)c1ccc(Br)cc1 -12.4%
CCOC(=O)c1cnc(N2CCN(c3ccc(C)cc3C)CC2)c2ccccc12 -8.23%
Cn1c(=O)c2c(SCC(=O)Nc3ccc(F)cc3F)nc(C3CCCC3)nc2n(C)c1=O 8.97%
CSc1cccc(NC(=O)CN2C(=O)COc3ccc(S(=O)(=O)N4CCC(C)CC4)cc32)c1 -11.3%
Cc1ccc(C)c(NC(=O)Cn2ccn(-c3ccc(F)cc3)c(=O)c2=O)c1 -4.42%
Cc1ccccc1CNC(=O)c1ccc2[nH]c(C)c(C)c2c1 -6.9%
Cc1ccc(-c2nc3c4ccccc4n(CC(=O)N4CCN(c5ccc(F)cc5)CC4)c(=O)n3n2)cc1 -11.5%
Cc1cc(C)cc(Nc2cc(C)nc3nc(-c4ccco4)nn23)c1 11.7%
Cc1cc(N2CCC(C(=O)NCCC(C)C)CC2)n2nc(C)c(-c3ccc(Cl)cc3)c2n1 0.218%
Cc1ccc(CN(C(=O)c2ccccc2[N+](=O)[O-])c2ccccn2)cc1 -0.656%
CCC(C)NC(=O)Cn1c(-c2cccs2)cc2cc(Cl)ccc21 (stereo unspecified) 0.449%
CCOC(=O)c1c(NC(=O)c2cc(-c3ccc(Cl)cc3)on2)sc(C)c1C -1.24%
Cc1ccc(Cl)cc1NC(=O)Cn1ncc2c(C)n(Cc3ccccc3F)c(C)c2c1=O 1.22%
CC(C)(C)NC(=O)c1ccc2nc(CCc3ccccc3)oc2c1 -2.83%
CC1CN(C(=O)CCC(=O)NCc2ccccc2)c2cc(Cl)ccc2O1 (stereo unspecified) 0.573%
COc1ccc(-c2nc(-c3ccccc3)c(-c3ccc(F)cc3)[nH]2)c(OC)c1C -5.64%
Cc1cc(C)cc(N2C(=O)CCSC23C(=O)N(Cc2ccccc2)c2ccccc23)c1 (stereo unspecified) 3.81%
CCOc1ccc(CCNC(=O)c2ccc3c(c2)sc2nc(-c4ccc(F)cc4)cn23)cc1OCC -3.54%
O=S(=O)(NCCc1csc2nc(-c3ccc(F)cc3)nn12)c1ccc(Oc2ccccc2)cc1 0.166%
Cc1ccc(C(CC(=O)Nc2ccc(F)c(Cl)c2)N2Cc3ccccc3C2=O)cc1 (stereo unspecified) 0%
CC(C)c1ccc(NC(=O)CCn2c(=O)c3cccn3c3ccccc32)cc1 2.19%
COc1cccc(CNCCSc2nnnn2C)c1OCc1ccc(F)cc1 -7.43%
Cc1ccc(N2CC(NC(=O)C3CC3)CC2=O)cc1C (stereo unspecified) -1.67%
CCOC(=O)c1ccn(-c2nc(-c3cccc(OC)c3)cc(C(F)(F)F)n2)n1 -7.57%
Cc1nc2sccn2c(=O)c1S(=O)(=O)Nc1ccc(N2CCN(C(=O)C(C)C)CC2)cc1 -5.51%
COc1cc(C(=O)Nc2nonc2-c2ccc(Cl)cc2)cc(OC)c1OC 1.4%
CCOC(=O)c1[nH]c(C)c(CCC(=O)Nc2ccc(Br)c(C)c2)c1C -13.5%
Cn1nnnc1SCCCNCc1cc(Cl)ccc1OCc1ccccc1F -8.72%
CCCCCc1nn2cc(-c3ccccc3)nc2s1 1.58%
Cc1ccc(NC(=O)Cn2cnc3sc(C)c(S(=O)(=O)N4CCN(c5ncccn5)CC4)c3c2=O)cc1F 3.26%
COC(=O)c1ccc(NC(=O)CC2C(=O)N(c3ccccc3)C(=O)N2Cc2ccco2)cc1 (stereo unspecified) -7.16%
Cc1cccc(N2CCN(S(=O)(=O)c3c(C(=O)N4CCC(C)CC4)c(C)n(C)c3C)CC2)c1C 20.5%
COc1ccc(NC(=O)CSC2=Nc3ccccc3C3=NC(CC(=O)NCc4ccc5c(c4)OCO5)C(=O)N23)cc1 (stereo unspecified) -3.89%
CCOc1ccc(C(c2c(O)cc(C)n(Cc3ccco3)c2=O)N2CCN(c3ccccc3)CC2)cc1 (stereo unspecified) 7.23%
CCCc1cnc2c(c1SCC(=O)Nc1ccccc1F)c(=O)n(C)c(=O)n2C -3.7%
Cc1cccc(CNC(=O)C2CCN(S(=O)(=O)c3ccc4c(c3)CCCN4C(=O)C3CCC3)CC2)c1 -5.52%
Cc1ccc(C2C=C(c3ccc(Cl)cc3)Nc3nc(NC(=O)c4ccco4)nn32)cc1 (stereo unspecified) -26.2%
